Target: SARS-CoV-2 spike protein (Severe acute respiratory syndrome coronavirus 2, UniProt P0DTC2)
Settings: 1% NCT, 30 min, 37° C.

O=S(=O)(O)CCNCl [NCT, N-chlorotaurine]
phenylalanines chlorinated: two

Reference: patent US12171732B2, “Compositions and use of N-chlorotaurine for treatment and prevention of respiratory infections” (priority 2021, dated 2024)
